{"source": "the supplement of paper PMC12217912", "parents": {"B1": {"name": "TEV protease; numbered along this chain (parent)", "chain": "MGESLFKGPRDYNPISSSICHLTNESDGHTTSLYGIGFGPFIITNKHLFRRNNGTLVVQSLHGVFKVKDTTTLQQHLVDGRDMIIIRMPKDFPPFPQKLKFREPQREERICLVTTNFQTKSMSSMVSDTSCTFPSGDGIFWKHWIQTKDGQCGSPLVSTRDGFIVGIHSASNFTNTNNYFTSVPKNFMELLTNQEAQQWVSGWRLNADSVLWGGHKVFMVKPEEPFQPVKEATQL"}}, "note": "The other results are listed elsewhere or left out. The full chains were built here from the parent and the listed change. Inactive controls read about 0.05.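 Note: Bxb1 expression induced with 0.2% (w/v) L-rhamnose at OD600 near 0.5, cultures sampled hourly, flipped fraction per protease–substrate barcode pair counted by paired-end Illumina sequencing.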"}
{"variants_of": "B1", "test": "raw area under fraction-flipped curve 0-4 h after induction (AUC4h, not background-subtracted), DNA-recorder readout of cleavage of the substrate (dimensionless); higher = more cleavage of the substrate by the protease variant", "conditions": "temperature: 34 °C; time window: 0-4 h after rhamnose induction"}
{"variant": "T174A", "area with substrate ESLYFQS": 0.104}
{"variant": "T119M", "area with substrate EILYFQS": 0.0792, "area with substrate EKLYFQS": 0.098, "area with substrate EMLYFQS": 0.112, "area with substrate EPLYFQS": 0.149, "area with substrate EQLYFQS": 0.147, "area with substrate ESLYFQS": 0.0677, "area with substrate EVLYFQS": 0.103, "area with substrate EYLYFQS": 0.0901}
{"variant": "T119F", "area with substrate EELYFQS": 0.115, "area with substrate EHLYFQS": 0.0981, "area with substrate EKLYFQS": 0.0975, "area with substrate EMLYFQS": 0.113, "area with substrate EPLYFQS": 0.0319, "area with substrate EWLYFQS": 0.115}
{"variant": "G153R", "area with substrate EKLYFQS": 0.0554, "area with substrate ETLYFQS": 0.0421, "area with substrate EVLYFQS": 0.0542}
{"variant": "F95M", "area with substrate EELYFQS": 0.107, "area with substrate EMLYFQS": 0.139, "area with substrate ESLYFQS": 0.0669, "area with substrate EWLYFQS": 0.0889}
{"variant": "G136A", "area with substrate EELYFQS": 0.0951, "area with substrate EHLYFQS": 0.0703, "area with substrate EKLYFQS": 0.13, "area with substrate ELLYFQS": 0.0854, "area with substrate EMLYFQS": 0.0891, "area with substrate EPLYFQS": 0.106, "area with substrate EQLYFQS": 0.131, "area with substrate ESLYFQS": 0.076}
{"variant": "N116C", "area with substrate EGLYFQS": 0.0876, "area with substrate EILYFQS": 0.0759, "area with substrate EKLYFQS": 0.0661, "area with substrate ERLYFQS": 0.0753, "area with substrate ESLYFQS": 0.0978, "area with substrate EVLYFQS": 0.135, "area with substrate EWLYFQS": 0.0996}
{"variant": "I164F", "area with substrate EILYFQS": 0.0534, "area with substrate EPLYFQS": 0.0608, "area with substrate ESLYFQS": 0.0388, "area with substrate ETLYFQS": 0.0653}
{"variant": "G138R", "area with substrate EELYFQS": 0.0673, "area with substrate EGLYFQS": 0.0843, "area with substrate EHLYFQS": 0.105, "area with substrate EILYFQS": 0.0978, "area with substrate EPLYFQS": 0.118, "area with substrate EQLYFQS": 0.0948, "area with substrate ESLYFQS": 0.0873, "area with substrate EVLYFQS": 0.0914, "area with substrate EYLYFQS": 0.0891}
{"variant": "H215A", "area with substrate EELYFQS": 0.0701, "area with substrate EILYFQS": 0.0478, "area with substrate EKLYFQS": 0.0661, "area with substrate EPLYFQS": 0.0765, "area with substrate EQLYFQS": 0.0708, "area with substrate ESLYFQS": 0.0676, "area with substrate EVLYFQS": 0.0575, "area with substrate EYLYFQS": 0.057}
{"variant": "N193S", "area with substrate EELYFQS": 0.106, "area with substrate EGLYFQS": 0.11, "area with substrate EILYFQS": 0.0901, "area with substrate ESLYFQS": 0.107}
{"variant": "D128G", "area with substrate EELYFQS": 0.174}
{"variant": "F218R", "area with substrate EELYFQS": 0.132, "area with substrate ESLYFQS": 0.0967}
{"variant": "R160E", "area with substrate EFLYFQS": 0.14, "area with substrate EGLYFQS": 0.0637, "area with substrate EILYFQS": 0.091, "area with substrate EPLYFQS": 0.148, "area with substrate EQLYFQS": 0.127, "area with substrate ERLYFQS": 0.0854, "area with substrate ESLYFQS": 0.0949, "area with substrate ETLYFQS": 0.0606, "area with substrate EVLYFQS": 0.116, "area with substrate EWLYFQS": 0.102}
{"variant": "G35K", "area with substrate EWLYFQS": 0.0588, "area with substrate EYLYFQS": 0.0494}
{"variant": "G214C", "area with substrate EILYFQS": 0, "area with substrate EVLYFQS": 0.0883}
{"variant": "Y34L", "area with substrate EFLYFQS": 0.0973, "area with substrate EPLYFQS": 0.121, "area with substrate ERLYFQS": 0.0894, "area with substrate ESLYFQS": 0.0942, "area with substrate EVLYFQS": 0.084, "area with substrate EYLYFQS": 0.103}
{"variant": "P96Q", "area with substrate EELYFQS": 0.109, "area with substrate EHLYFQS": 0.0936, "area with substrate EILYFQS": 0.101, "area with substrate EKLYFQS": 0.117, "area with substrate EMLYFQS": 0.0601, "area with substrate EQLYFQS": 0.129, "area with substrate ERLYFQS": 0.115, "area with substrate ESLYFQS": 0.0905, "area with substrate EYLYFQS": 0.0967}
{"variant": "N172C", "area with substrate EELYFQS": 0.0702, "area with substrate EFLYFQS": 0.097, "area with substrate EGLYFQS": 0.0593, "area with substrate EHLYFQS": 0.0652, "area with substrate EMLYFQS": 0.0708, "area with substrate EQLYFQS": 0.0569, "area with substrate ESLYFQS": 0.0696, "area with substrate ETLYFQS": 0.0298, "area with substrate EVLYFQS": 0.0592, "area with substrate EWLYFQS": 0.0709}
{"variant": "S121T", "area with substrate ESLYFQS": 0.106, "area with substrate EVLYFQS": 0.109, "area with substrate EWLYFQS": 0.0973, "area with substrate EYLYFQS": 0.119}
{"variant": "T114H", "area with substrate EILYFQS": 0.128, "area with substrate ESLYFQS": 0.0977, "area with substrate EYLYFQS": 0.101}
{"variant": "T115G", "area with substrate EILYFQS": 0.064, "area with substrate EPLYFQS": 0.085, "area with substrate EQLYFQS": 0.119, "area with substrate EVLYFQS": 0.0722}
{"variant": "K216M", "area with substrate EHLYFQS": 0.112, "area with substrate EILYFQS": 0.1, "area with substrate EMLYFQS": 0.112, "area with substrate EQLYFQS": 0.0937, "area with substrate ESLYFQS": 0.117, "area with substrate EVLYFQS": 0.099}
{"variant": "M83F", "area with substrate EHLYFQS": 0.105, "area with substrate EILYFQS": 0.0717, "area with substrate ELLYFQS": 0.0667, "area with substrate EQLYFQS": 0.102, "area with substrate ERLYFQS": 0.0694, "area with substrate ESLYFQS": 0.0732, "area with substrate ETLYFQS": 0.1, "area with substrate EVLYFQS": 0.0713, "area with substrate EWLYFQS": 0.0982}
{"variant": "V57R", "area with substrate EFLYFQS": 0.0867, "area with substrate EILYFQS": 0.101, "area with substrate EKLYFQS": 0.0994, "area with substrate ERLYFQS": 0.0812}
{"variant": "P104K", "area with substrate EGLYFQS": 0.0471, "area with substrate EPLYFQS": 0.123, "area with substrate EVLYFQS": 0.0419, "area with substrate EYLYFQS": 0.0568}
{"variant": "K120N", "area with substrate EELYFQS": 0.169, "area with substrate EGLYFQS": 0.0821, "area with substrate EILYFQS": 0.0888, "area with substrate EMLYFQS": 0.0753, "area with substrate ERLYFQS": 0.111}
{"variant": "N177Y", "area with substrate EFLYFQS": 0.092, "area with substrate EPLYFQS": 0.0682, "area with substrate EQLYFQS": 0.074, "area with substrate ERLYFQS": 0.0441, "area with substrate EWLYFQS": 0.0753, "area with substrate EYLYFQS": 0.0545}
{"variant": "D208W", "area with substrate EELYFQS": 0.0674, "area with substrate EFLYFQS": 0.0664, "area with substrate EGLYFQS": 0.0584, "area with substrate EHLYFQS": 0.112, "area with substrate EILYFQS": 0.0701, "area with substrate EKLYFQS": 0.0873, "area with substrate ELLYFQS": 0.0655, "area with substrate EMLYFQS": 0.101, "area with substrate EPLYFQS": 0.0755, "area with substrate ERLYFQS": 0.0587, "area with substrate ESLYFQS": 0.0751, "area with substrate EVLYFQS": 0.0943}
{"variant": "D161Q", "area with substrate EGLYFQS": 0.0546, "area with substrate EILYFQS": 0.0609, "area with substrate EMLYFQS": 0.0768, "area with substrate ESLYFQS": 0.0661, "area with substrate EVLYFQS": 0.047, "area with substrate EWLYFQS": 0.0607}
{"variant": "I145E", "area with substrate EILYFQS": 0.0736, "area with substrate EKLYFQS": 0.0082, "area with substrate ERLYFQS": 0.0019, "area with substrate ESLYFQS": 0.0633, "area with substrate EWLYFQS": 0.0564}
